# Data published in PubChem BioAssay AID463173 (ICCB-Longwood Screening Facility, Harvard Medical School, 2010).
# About 1,700 (3.3%) of roughly 52,000 compounds were called active. No stated cut-off is given here; in the data, active means survival mostly below about 52% (no sharp cut-off); inactive means mostly above about 56%. The list shows a part of the results.
# System: Wild type
# Experiment: growth inhibition of S. aureus wild type versus tarO mutant, primary screen, teichoic acid synthesis inhibitors, RN4220, OD600 (AID 463173)
# Settings: S. aureus RN4220 wild type/DeltatarO growth, OD600, 18 h, active compounds read low, screened at 18.75 µg/mL (by protocol)
row,SMILES,survival
1,COc1cccc(CNC(=O)CSc2cc(C)[nH]c(=O)n2)c1,inactive: 69%
2,Cc1c(Cl)cccc1NC(=O)CSc1nc(=O)n(Cc2ccncc2)c2c1CCC2,inactive: 153%
3,Cc1ccc(C(=O)COC(=O)CCCC(=O)Nc2cc(C(F)(F)F)ccc2Cl)cc1C,inactive: 57%
4,Cc1oc(-c2ccc(C(=O)NCCCOC(C)C)cc2)nc1CS(=O)(=O)c1ccccc1,active: -6%
5,COc1ccc(C(=O)NCc2ccc3c(c2)CCN3C(C)=O)cc1OC,inactive: 73%
6,Cc1cc(Nc2ccccc2F)n2nc(Cc3ccc(Cl)cc3)nc2n1,inactive: 84%
7,COc1cc2c(cc1OC)n(CC(=O)Nc1ccc(C)cc1C)c(=O)n1nc(-c3ccccc3)nc21,inactive: 91%
8,O=C(NN1C(=O)C2C3C=CC(C3)C2C1=O)c1ccccc1 (centres undefined),inactive: 110%
9,CCn1ccc2cc(S(=O)(=O)N3CCCN(C(=O)Nc4ccc(C)cc4Cl)CC3)ccc21,inactive: 63%
10,Cc1cccc(NC(=O)CSc2ncc3c(n2)-c2cc(Cl)ccc2N(C)S3(=O)=O)c1C,inactive: 94%
11,CC(C)c1ccc(Nc2cc(C(=O)NCCCN(C)Cc3ccccc3)c3ccccc3n2)cc1,inactive: 159%
12,COC(=O)c1ccc(C2c3c(-c4ccc(Br)cc4)n[nH]c3C(=O)N2c2ccc(Cl)cc2)cc1 (centres undefined),inactive: 75%
13,CC(=O)N1CCN(C(=O)C(=O)Nc2c3c(nn2-c2ccc(Cl)cc2)CSC3)CC1,active: -3%
14,CCOc1ccc2c(c1)c(=O)c(S(=O)(=O)c1ccc(CC)cc1)cn2CC,inactive: 75%
15,CCc1ccc(OCC(=O)Nc2cc3oc4ccccc4c3cc2OC)c(Br)c1,inactive: 102%
16,O=C(COc1ccccc1)Nc1c(C(=O)N2CCN(c3ccc(F)cc3)CC2)oc2ccccc12,inactive: 74%
17,CC1CCN(C(=O)CN2c3ccc(Br)cc3-c3ccccc3S2(=O)=O)CC1,inactive: 105%
18,COc1ccc(-c2nnc(SCC(=O)N3CCCCC3)o2)cc1,inactive: 72%
19,CCOc1ccccc1-c1noc(CSc2nnc(-c3ccncc3)n2-c2ccc(F)cc2)n1,inactive: 78%
20,Cc1c(C(=O)Nc2ccccc2Br)oc2ccccc12,inactive: 101%
21,CCOc1ccc(CCNC(=O)CCCc2nnc3n(CCCOC)c(=O)c4sccc4n23)cc1,inactive: 96%
22,O=C1CC(c2ccccc2)Cc2[nH]c(=O)c(C(=O)Nc3ccc(F)cc3)cc21 (centres undefined),inactive: 75%
23,Cc1c(C(=O)N2CCCCCC2)c(S(=O)(=O)Nc2ccc(OC(F)(F)F)cc2)c(C)n1C,inactive: 132%

row,SMILES,survival
1,COCCn1c(Cc2ccccc2)nnc1SCC(=O)N(C)C,inactive: 100%
2,CCOC(=O)c1ccc(NC(=O)CSc2cc(-c3ccccc3)nc(C)n2)cc1,inactive: 71%
3,Nc1ccccc1NC(=O)CCC(=O)O,inactive: 97%
4,Cc1ccc(C)c(N(C)C(=O)CCNC(=O)Cn2cnc3ccccc3c2=O)c1,inactive: 70%
5,CC(C)CC(=O)Nc1nnc(S(=O)(=O)N(C)c2ccc(Cl)cc2)s1,inactive: 103%
6,CN1CCN(S(=O)(=O)c2ccc(Br)c3ccccc23)CC1,inactive: 109%
7,O=C(CNC(=O)c1ccccc1Cl)OCc1cc(=O)n2nc(C3CC3)sc2n1,inactive: 74%
8,Cc1c(-c2ccc(Cl)cc2)c(=O)oc2c(CN3CCN(C)CC3)c(O)ccc12,inactive: 153%
9,CC1CCc2c(sc3nc(-c4cc5ccccc5oc4=O)nc(Cl)c23)C1 (centres undefined),inactive: 58%
10,COc1cccc2sc(N(Cc3cccnc3)C(=O)C3CCCCC3)nc12,inactive: 93%
11,CCOC(=O)C1CCCN(C(=O)c2cc3c(Cl)nc4ccccc4c3s2)C1 (centres undefined),inactive: 41%
12,CCC1Oc2ccc(C)cc2N(CC(=O)NCc2ccc(F)cc2)C1=O (centres undefined),inactive: 82%
13,O=C(Nc1cccc(Cl)c1)C(Cc1ccccc1)n1cccc1 (centres undefined),active: 8%
14,CCOc1ccc(C2c3c(-c4ccccc4O)n[nH]c3C(=O)N2Cc2cccnc2)cc1OC (centres undefined),inactive: 89%
15,CC(C)c1nn2c(=O)cc(COC(=O)c3cccc(NC(=O)c4ccccc4F)c3)nc2s1,inactive: 73%
16,COc1cccc(CNC(=O)Cn2c(=O)cc(C(F)(F)F)c3c(C)nn(C)c32)c1OC,inactive: 73%
17,O=C(NCCS(=O)(=O)N1CCN(c2ccccc2F)CC1)c1ccccc1C(F)(F)F,inactive: 126%
18,CCN(CC)S(=O)(=O)c1ccc(Nc2ccc(-c3ccc4c(c3)OCCO4)nn2)cc1,inactive: 105%
19,CCOC(=O)c1ccc2c(c1)sc1nc(-c3ccc(OCC)cc3)cn12,inactive: 54%
20,CCN(CC)CCCNC(=O)c1c2c(nc3ccccc13)C(=O)N(C1CCCCC1)C2,inactive: 69%
21,Fc1ccc(F)c(Nc2c3c(nc4ccc(Cl)cc24)CCC3)c1,active: -1%
22,COc1ccc(N2C(=O)C(CC(=O)Nc3ccc(Cl)cc3)N(Cc3ccc4c(c3)OCO4)C2=O)cc1 (centres undefined),inactive: 82%
23,Cc1cccc2sc(N(Cc3cccnc3)C(=O)CCS(=O)(=O)c3ccccc3)nc12,inactive: 82%

row,SMILES,survival
1,COc1ccc(NC(=O)CCc2nc3cccnc3n2-c2ccccc2)c(OC)c1,inactive: 68%
2,NC(=O)CSc1nc(-c2ccccc2)nc2c1CCCC2,inactive: 97%
3,CS(=O)(=O)N(CC(=O)N1CCOCC1)c1cccc2ccccc12,inactive: 101%
4,CCOC(=O)c1c(NC(=O)c2cc(=O)c3cc(Cl)ccc3o2)sc(C)c1C,inactive: 85%
5,COc1cc(C(=O)Nc2ccccc2OCc2cc(=O)n3c(C)csc3n2)cc(OC)c1OC,inactive: 85%
6,CNCC(=O)NC(c1ccccc1)c1ccccc1,inactive: 105%
7,Cc1cccc(-c2nc(SCc3cc(=O)c4cccc(F)c4[nH]3)n[nH]2)c1,inactive: 70%
8,Cc1ccc(C)c(N2CCN(C(=O)CN3CCSc4ccccc43)CC2)c1,inactive: 67%
9,O=S(=O)(Nc1ccccn1)c1cccs1,inactive: 104%
10,Cc1ccc(NCc2nnc(SCC(=O)c3ccc(C)cc3)n2C)cc1,inactive: 100%
11,CCN1CCN(C(c2ccc(C)cc2)c2sc3nc(-c4ccco4)nn3c2O)CC1 (centres undefined),inactive: 60%
12,O=C1Nc2ccc(S(=O)(=O)N3CCCC3)c3cccc1c23,inactive: 105%
13,COCCn1c(=N)c(C(=O)NCC2CCCO2)cc2c(=O)n3ccccc3nc21 (centres undefined),inactive: 81%
14,CCOc1ccc(CCNC(=O)CSc2nnnn2-c2ccccc2Cl)cc1OCC,inactive: 97%
15,COc1ccccc1OCCCn1c(C2CC(=O)N(c3ccc(F)cc3)C2)nc2ccccc21 (centres undefined),inactive: 101%
16,COc1ccc(CCNC(=O)c2c(Nc3ccccc3C)sc(C(=O)c3ccccc3)c2N)cc1OC,inactive: 53%
17,Cc1cccc2nc(Cn3c(=O)n(-c4ccccc4)c(=O)c4c5c(sc43)CCC5)cc(=O)n12,inactive: 82%
18,CC(C)n1c(SCC(=O)c2ccc(F)cc2)nc2c(sc3ccccc32)c1=O,inactive: 74%
19,Cc1ccc(C2C(C(=O)/C=C/c3ccccc3)=C(O)C(=O)N2CCO)cc1 (centres undefined),inactive: 99%
20,CCN1c2ccccc2-c2nc(SCC(=O)Nc3cc(OC)cc(OC)c3)ncc2S1(=O)=O,inactive: 32%
21,COc1ccc(-c2nn(C)c3sc(C(=O)Nc4cc(OC)c(OC)c(OC)c4)cc23)cc1OC,inactive: 79%
22,CCCN(C(=O)c1c(C)oc2ncn(CC(C)C)c(=O)c12)c1ccccc1C,inactive: 59%
23,CCOc1ccccc1NC(=O)CSc1nnc(CC)c(CC)n1,inactive: 102%

row,SMILES,survival
1,CCCCC(CC)CNC(=O)c1ccc(Cn2c(=O)[nH]c3cc(OC)c(OC)cc3c2=O)cc1 (centres undefined),inactive: 101%
2,CCCOc1ccc(C(=O)Nc2cc(-c3nc4ccccc4[nH]3)ccc2C)cc1,inactive: 73%
3,COc1cccc(CN2CCCN(Cc3ccc(F)cc3)S2(=O)=O)c1,inactive: 69%
4,Cc1ccc(O)c(NC(=O)C2=CC(c3cccs3)=NS(=O)(=O)N2C)c1,inactive: 71%
5,Cc1ccccc1OCC(=O)Nc1nnc(SCc2cc(=O)n3cccc(C)c3n2)s1,inactive: 82%
6,COc1ccc(C)cc1NC(=O)C1CCN(S(=O)(=O)Cc2ccccc2)CC1,inactive: 86%
7,COc1cccc(CNC(=O)c2cc3cc(C)ccc3n2C)c1,inactive: 92%
8,CC1Cc2cc(S(=O)(=O)CCC(=O)Nc3ccc(F)cc3Cl)ccc2N1C(=O)C1CC1 (centres undefined),inactive: 47%
9,CCOc1ccccc1NC(=O)Cn1c(=O)n(-c2ccc(Cl)cc2)c(=O)c2oc3ccccc3c21,inactive: 85%
10,Cn1cc(S(=O)(=O)N2CCc3ccccc32)cc1C(=O)Nc1ccc(C(F)(F)F)cc1,inactive: 63%
11,Cc1c(NC(=O)C(C)(C)C)cccc1-c1nc2ccccc2s1,inactive: 82%
12,Cc1ccc(-n2nc(C(=O)N3CCN(c4cc(C)ccc4C)CC3)c3c4ccccc4n(C)c3c2=O)cc1,inactive: 79%
13,Cn1c(=O)n(C)c2cc(N3CCCCC3)c(NC(=O)Nc3ccc(Br)cc3)cc21,inactive: 81%
14,CCc1ccc(NC(=O)CSc2nc3c([nH]c4ccccc43)c(=O)n2C)cc1,inactive: 51%
15,CCN(CC)c1ccc(NC(=O)Cn2cc3c(n2)CCCC3)c(C)c1,inactive: 124%
16,Cc1ccc(-n2c(=O)c3ccc(C(=O)NCc4ccccc4Cl)cc3n(Cc3cccc(F)c3)c2=O)cc1,inactive: 77%
17,Cc1ccc(CNC(=O)C2CCCN(c3nn4cc(-c5ccc(C)cc5)nc4s3)C2)cc1 (centres undefined),inactive: 92%
18,CC1C(=N)N(c2nc(N(C)C)nc(N(C)C)n2)CC1=O (centres undefined),inactive: 91%
19,CCOC(=O)c1cc2c(=O)n3ccccc3nc2n(CC2CCCO2)c1=NC(=O)c1ccccc1OCC (centres undefined),inactive: 61%
20,COc1ccc(N2CCN(C(CNC(=O)c3c(F)cccc3F)c3ccc4c(c3)OCO4)CC2)cc1 (centres undefined),inactive: 92%
